Test results: the supplement of paper PMC12217912
This is one part of the list. Sequences were assembled here from the parent chain. Values near 0.05 are background.

B1: TEV protease; numbered along this chain (parent)
chain: MGESLFKGPRDYNPISSSICHLTNESDGHTTSLYGIGFGPFIITNKHLFRRNNGTLVVQSLHGVFKVKDTTTLQQHLVDGRDMIIIRMPKDFPPFPQKLKFREPQREERICLVTTNFQTKSMSSMVSDTSCTFPSGDGIFWKHWIQTKDGQCGSPLVSTRDGFIVGIHSASNFTNTNNYFTSVPKNFMELLTNQEAQQWVSGWRLNADSVLWGGHKVFMVKPEEPFQPVKEATQL

Variants of: B1
Assay: raw area under fraction-flipped curve 0-4 h after induction (AUC4h, not background-subtracted), DNA-recorder readout of cleavage of the substrate (dimensionless); higher = more cleavage of the substrate by the protease variant
Details: temperature: 34 °C; time window: 0-4 h after rhamnose induction
Protocol: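 In vivo DNA recorder in E. coli TOP10(DE3) ΔrhaA at 34 °C. Each TEVp single-site mutant (parent TEVp 0) is paired with a single-site variant of the 7-mer TEVs (canonical ENLYFQ|S). The substrate sits between flexible linkers in a Bxb1-sfGFP-TEVs-SsrA fusion, so cleavage stabilises Bxb1 and speeds flipping of a recombination array, read by NGS. The value is the raw area under the fraction-flipped curve over 0-4 h after rhamnose induction (AUC4h), with ≥20 reads per time point. It is not background-subtracted; inactive controls average about 0.047.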
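Further: Bxb1 expression induced with 0.2% (w/v) L-rhamnose at OD600 near 0.5, cultures sampled hourly, flipped fraction per protease–substrate barcode pair counted by paired-end Illumina sequencing.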

| Variant | area with substrate FNLYFQS | area with substrate HNLYFQS | area with substrate INLYFQS | area with substrate LNLYFQS | area with substrate TNLYFQS | area with substrate WNLYFQS | area with substrate YNLYFQS | area with substrate NNLYFQS | area with substrate RNLYFQS | area with substrate VNLYFQS |
| --- | --- | --- | --- | --- | --- | --- | --- | --- | --- | --- |
| S201H | 0.0672 | 0.0643 | 0.0521 | 0.0604 | 0.067 | 0.0625 | 0.0736 |  |  |  |
| D149I | 0.0502 | 0.0521 | 0.0663 |  |  | 0.0302 |  | 0.0488 | 0.0623 | 0.0658 |
| S182H | 0.0571 | 0.0729 |  | 0.0633 | 0.06 | 0.0474 | 0.0525 |  |  |  |
| F101S | 0.0315 |  | 0.0581 |  |  | 0.0305 |  | 0.0449 | 0.0506 |  |
| P155G | 0.0558 | 0.0621 | 0.0516 |  | 0.0501 | 0.0686 | 0.0558 |  |  |  |
| D137A | 0.0604 |  |  |  |  |  |  |  |  |  |
| F187G | 0.0895 | 0.0409 | 0.0549 | 0.0529 | 0.0364 | 0.0633 | 0.0553 |  | 0.0576 |  |
| F187A | 0.0716 | 0.053 |  |  |  | 0.0502 | 0.0523 | 0.0424 |  |  |
| L156Y | 0.06 | 0.0543 |  |  |  | 0.0354 |  | 0.0495 |  | 0.0475 |
| T129D | 0.0766 |  | 0.0745 |  |  |  |  | 0.057 |  |  |
| C111A | 0.0576 |  |  |  |  |  |  | 0.0741 |  |  |
| V200D | 0.0517 |  |  |  | 0.0433 | 0.061 | 0.0574 |  | 0.0682 | 0.0551 |
| P9N | 0.0417 | 0.0574 |  |  |  |  | 0.0678 |  |  |  |
| H215L | 0.0592 | 0.0613 | 0.0659 | 0.0506 | 0.0642 | 0.0571 |  | 0.0612 |  |  |
| T174C | 0.067 |  |  | 0.0643 |  | 0.0562 |  |  |  |  |
| T174F | 0.0604 | 0.0603 | 0.0608 |  |  |  |  |  |  |  |
| S60G | 0.0567 |  | 0.0748 |  |  |  | 0.0633 | 0.0666 |  |  |
| S60W | 0.0784 | 0.074 |  | 0.0896 | 0.0629 |  | 0.0493 |  | 0.0677 | 0.0629 |
| F65P | 0.0481 | 0.0347 |  |  |  | 0.0496 | 0.0398 | 0.0377 |  |  |
| T132N | 0.0487 |  |  |  | 0.0675 | 0.068 | 0.0685 | 0.0677 |  |  |
| N206C | 0.0519 | 0.0622 | 0.056 | 0.0671 | 0.0676 | 0.0514 | 0.0649 |  |  | 0.0676 |

| Variant | area with substrate FNLYFQS | area with substrate HNLYFQS | area with substrate INLYFQS | area with substrate LNLYFQS | area with substrate TNLYFQS | area with substrate WNLYFQS | area with substrate YNLYFQS | area with substrate NNLYFQS | area with substrate RNLYFQS | area with substrate VNLYFQS |
| --- | --- | --- | --- | --- | --- | --- | --- | --- | --- | --- |
| Q198G | 0.0929 | 0.0646 | 0.0606 |  | 0.0587 |  | 0.0619 | 0.0628 |  |  |
| L190T | 0.0682 |  | 0.0605 | 0.0697 |  |  |  |  |  |  |
| N45G | 0.0415 |  | 0.0398 | 0.0611 | 0.0527 | 0.0541 | 0.0611 | 0.0602 |  |  |
| T233W | 0.0579 |  |  |  |  |  | 0.057 | 0.0705 |  |  |
| S154V | 0.0527 | 0.0591 |  | 0.0459 |  | 0.0524 |  |  |  |  |
| S154A | 0.0622 | 0.0718 | 0.0569 | 0.0604 | 0.0593 | 0.0596 | 0.0529 |  | 0.0804 |  |
| N172H | 0.0682 |  |  |  |  |  |  |  |  |  |
| L22M | 0.0569 | 0.0567 | 0.0646 | 0.0728 | 0.0721 | 0.0888 | 0.0627 | 0.061 |  |  |
| V78D | 0.0382 | 0.056 | 0.0473 | 0.045 | 0.0546 | 0.059 |  | 0.0464 |  |  |
| V78E | 0.0445 | 0.0696 |  | 0.0641 | 0.0639 | 0.0547 | 0.0472 | 0.0177 | 0.0494 | 0.04 |
| G8L | 0.0576 |  |  |  |  | 0.054 |  |  |  | 0.0612 |
| R87T | 0.0559 | 0.0655 | 0.0758 |  |  | 0.0579 |  | 0.0489 |  |  |
| K185N | 0.0366 |  |  |  | 0.0812 | 0.0561 |  |  |  |  |
| N177T | 0.092 | 0.0797 |  | 0.0976 | 0.0881 | 0.0725 | 0.0643 |  |  | 0.0966 |
| M83L | 0.053 | 0.0639 | 0.0559 | 0.0591 |  | 0.0513 |  |  |  |  |
| Q194C | 0.0754 | 0.0815 | 0.0772 | 0.0646 |  | 0.0492 | 0.0395 | 0.0466 | 0.0681 | 0.0638 |
| N116V | 0.0644 |  | 0.0477 |  |  | 0.0582 |  | 0.0549 |  |  |
| G2K | 0.0672 | 0.0833 |  |  | 0.0641 |  | 0.0658 | 0.0649 |  |  |
| G2I | 0.0648 | 0.0768 |  |  |  | 0.0584 |  |  | 0.0593 | 0.0909 |
| W199Y | 0.0504 | 0.0616 | 0.0513 |  | 0.0062 | 0.0573 |  |  |  |  |
| V229D | 0.065 | 0.0825 |  | 0.0697 |  | 0.157 |  |  |  |  |

Same assay, conditions: temperature: 34 °C; time window: 0-4 h after rhamnose induction

| Variant | area with substrate GNLYFQS | area with substrate KNLYFQS | area with substrate MNLYFQS | area with substrate PNLYFQS | area with substrate SNLYFQS | area with substrate QNLYFQS |
| --- | --- | --- | --- | --- | --- | --- |
| S182H | 0.0578 | 0.0675 | 0.0406 | 0.0586 |  |  |
| F101S |  |  |  | 0.0636 |  |  |
| P155G |  | 0.0786 | 0.0538 |  | 0.0624 |  |
| F187G | 0.0636 | 0.0691 | 0.0456 | 0.0623 | 0.0542 |  |
| F187A | 0.0541 | 0.0474 | 0.0577 |  |  |  |
| L156Y | 0.0588 |  | 0.0496 |  | 0.0642 |  |
| T129D | 0.0701 | 0.0685 |  | 0.0411 | 0.0718 | 0.0735 |
| C111A |  |  | 0.0751 |  | 0.0475 |  |
| V200D |  |  |  | 0.0749 |  |  |
| P9N |  | 0.0627 |  |  |  |  |
| H215L | 0.0672 |  |  |  |  |  |
| T174C |  |  | 0.0564 |  | 0.0441 |  |
| T174F |  |  |  |  | 0.0443 |  |
| S60G | 0.0591 |  |  | 0.0681 |  |  |
| S60W | 0.0668 | 0.0848 | 0.0595 | 0.0565 | 0.0473 |  |
| F65P |  |  | 0.0258 | 0.0725 | 0.042 |  |
| T132N |  |  | 0.0665 | 0.0499 | 0.0592 |  |
| N206C | 0.054 |  | 0.0715 |  | 0.0497 |  |
| L190T |  |  | 0.0729 | 0.0674 |  |  |

| Variant | area with substrate GNLYFQS | area with substrate KNLYFQS | area with substrate MNLYFQS | area with substrate PNLYFQS | area with substrate SNLYFQS | area with substrate QNLYFQS |
| --- | --- | --- | --- | --- | --- | --- |
| N45G |  | 0.0609 | 0.0658 |  | 0.0675 | 0.0592 |
| T233W |  | 0.0608 | 0.0662 | 0.0909 | 0.0497 | 0.0398 |
| S154V |  | 0.0546 | 0.0685 |  |  |  |
| S154A | 0.0634 |  | 0.0773 | 0.065 | 0.0668 |  |
| N172H |  | 0.0601 |  |  | 0.0594 |  |
| L22M | 0.0812 | 0.0694 |  |  | 0.067 | 0.084 |
| V78D | 0.054 |  |  | 0.0842 |  |  |
| V78E |  | 0.0721 | 0.0693 | 0.0636 | 0.0418 | 0.0673 |
| R87T | 0.0543 |  | 0.0413 | 0.0678 |  |  |
| K185N |  | 0.0626 |  | 0.0622 | 0.0739 |  |
| N177T | 0.0088 | 0.087 |  | 0.0992 | 0.0803 |  |
| M83L | 0.0645 |  | 0.0614 |  |  |  |
| Q194C | 0.0669 |  | 0.0656 |  | 0.0745 |  |
| N116V |  | 0.0474 | 0.0688 |  |  |  |
| G2K | 0.0781 |  |  | 0.0791 |  | 0.0699 |
| G2I | 0.111 | 0.0727 | 0.0672 |  | 0.056 | 0.055 |
| W199Y |  |  | 0.0701 |  | 0.0568 |  |
| V229D | 0.0781 |  |  | 0.0687 |  |  |
